Results published in article PMC4336329 (PLoS ONE, 2015).
Screen size: about 310,000 compounds; about 2,200 (0.71%) showed an effect of 50% or more. Effects have a minus sign here. This is one part of the list.

molecular target: human ether-à-go-go-related gene (hERG) potassium channel (human, UniProt Q12809); test: primary screen, population patch clamp on CHO cells stably expressing hERG
Sequence (Q12809 whole entry, looked up): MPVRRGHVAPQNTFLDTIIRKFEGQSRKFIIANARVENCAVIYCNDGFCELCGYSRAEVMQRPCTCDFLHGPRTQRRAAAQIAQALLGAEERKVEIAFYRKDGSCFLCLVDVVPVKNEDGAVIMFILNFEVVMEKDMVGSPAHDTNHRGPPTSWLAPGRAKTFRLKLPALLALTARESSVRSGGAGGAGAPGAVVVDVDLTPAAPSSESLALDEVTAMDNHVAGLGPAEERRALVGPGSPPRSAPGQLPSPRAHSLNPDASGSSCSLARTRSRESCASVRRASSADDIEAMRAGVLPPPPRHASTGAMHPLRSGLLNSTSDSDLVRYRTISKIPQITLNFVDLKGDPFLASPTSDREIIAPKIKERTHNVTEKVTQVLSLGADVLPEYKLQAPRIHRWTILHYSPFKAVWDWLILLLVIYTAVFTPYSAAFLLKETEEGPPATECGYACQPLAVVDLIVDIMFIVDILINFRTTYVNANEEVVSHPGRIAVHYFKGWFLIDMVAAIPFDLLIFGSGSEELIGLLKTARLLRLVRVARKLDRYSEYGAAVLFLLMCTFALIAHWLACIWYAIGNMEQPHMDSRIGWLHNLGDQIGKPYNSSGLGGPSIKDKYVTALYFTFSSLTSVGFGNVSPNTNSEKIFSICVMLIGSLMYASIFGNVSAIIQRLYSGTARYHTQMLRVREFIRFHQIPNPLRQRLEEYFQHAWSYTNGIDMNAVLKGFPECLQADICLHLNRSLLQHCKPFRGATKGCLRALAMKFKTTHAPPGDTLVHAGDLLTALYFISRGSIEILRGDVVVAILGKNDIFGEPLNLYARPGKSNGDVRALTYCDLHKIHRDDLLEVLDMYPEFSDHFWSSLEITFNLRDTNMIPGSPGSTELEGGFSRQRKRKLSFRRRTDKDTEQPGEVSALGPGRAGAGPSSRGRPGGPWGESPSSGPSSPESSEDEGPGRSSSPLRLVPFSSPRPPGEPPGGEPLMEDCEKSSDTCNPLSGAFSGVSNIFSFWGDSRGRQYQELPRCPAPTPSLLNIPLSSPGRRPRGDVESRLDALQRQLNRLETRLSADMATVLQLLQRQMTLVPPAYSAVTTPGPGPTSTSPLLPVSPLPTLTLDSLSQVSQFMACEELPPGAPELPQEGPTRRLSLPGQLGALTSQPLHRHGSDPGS

Row | SMILES | hERG current change (%, negative = inhibition) at 1uM [%]
1 | O=C(NCCN1CCOCC1)c1ccc2c(c1)N(Cc1ccccc1)C(=O)c1ccccc1S2 | 14.6
2 | Cc1cccc(-c2noc(CCc3ccccc3)n2)c1 | 2.05
3 | O=C(c1ccco1)N1CCN(C(=O)c2ccc(-c3ccccc3Cl)o2)CC1 | -13.8
4 | Cc1cc(NC(=O)c2ccccc2)no1 | -3.51
5 | COC(=O)c1cc(NC(=O)CN(c2cccc(OC)c2)S(=O)(=O)c2ccccc2)ccc1Cl | -6.44
6 | Cc1c(NP(=O)(c2ccc(Br)cc2)c2ccc(Br)cc2)c(=O)n(-c2ccccc2)n1C | -14.6
7 | Cc1ccc(S(=O)(=O)c2c(C)nn(-c3ccccc3)c2OC(=O)c2ccc(Br)o2)cc1 | 19.2
8 | CCOc1cccc(CN2CCC(Oc3ccc(C(=O)NCc4ccccn4)cc3)CC2)c1 | 11.8
9 | COc1ccc(NC(=O)c2cccnc2N2CCCCC2)cc1 | -0.349
10 | CCCNCc1cc(OC)c(OCC(=O)NCCc2ccccc2)cc1Br | -4.82
11 | Cc1cccc(NC(=O)CN2C(=O)S/C(=C\c3ccc(-c4cccc(C(=O)O)c4C)o3)C2=O)c1 | 11.2
12 | CCC(=O)N/N=C(\C)CC(=O)Nc1ccc2c(c1)OCCO2 | 18.7
13 | O=S(=O)(c1ccc(Cl)cc1)c1nc(-c2ccco2)oc1N1CCCCC1 | 9.92
14 | O=[N+]([O-])c1cccc(-c2nnnn2-c2cccc(F)c2)c1 | 14.7
15 | CC(C)=NNc1nc(-c2ccc([N+](=O)[O-])cc2)cs1 | -0.704
16 | O=C(Nc1ccccc1Cl)c1ccccc1S(=O)(=O)c1ccccc1[N+](=O)[O-] | 16.8
17 | COc1ccc(NC(=O)c2cc(=O)[nH]c3ccccc23)cc1 | 17.1
18 | Cc1cc(=O)oc(C)c1C(=O)NCCCN1CCN(c2ccccc2F)CC1 | -7.44
19 | COc1ccc(OC)c(NC(=O)Cn2c(-c3ccc(Cl)cc3)noc2=O)c1 | -16.4
20 | CN(C1CCCCC1)S(=O)(=O)c1ccc(NC(=O)C2CCCCC2)cc1 | 3.04
21 | Cc1ccc(C(=O)CCNc2cccc(Br)c2)o1 | 21.6
22 | Cc1ccc(N2CC(C(=O)Nc3nnc(SCc4cccnc4)s3)CC2=O)cc1 (centres unmarked) | 13.1

Row | SMILES | hERG current change (%, negative = inhibition) at 1uM [%]
23 | CC(=O)c1ccc(S(=O)(=O)NC2CC2)cc1 | 8.28
24 | COc1ccc(-n2nc(C(=O)NCC(=O)N3CCN(C)CC3)c3ccccc3c2=O)cc1 | 15.1
25 | Cc1ccc(OC(=O)c2ccc3nc(C)sc3c2)cc1 | 10
26 | CC1(C)Cc2c(sc(NC(=O)COc3cccc4ccccc34)c2C#N)C(C)(C)N1 | 9.09
27 | CCCCOc1ccc(C(O)(CCN2CCOCC2)c2ccccc2)cc1.Cl (centres unmarked) | 3.49
28 | Cl.O=C(/C=C/c1cn(-c2ccccc2)nc1-c1cccs1)NCCN1CCOCC1 | -1.11
29 | O=C(N/N=C/c1nn(-c2ccccc2)cc1-c1ccccc1)c1ccncc1 | -1.14
30 | CCOC(=O)c1cnc2c(C(F)(F)F)cccc2c1N1CCN(C)CC1.Cl | 7.89
31 | CC(/C=N/NC(=O)c1ccccc1F)=C\c1ccccc1 | 10.4
32 | O=S(=O)(NC1CCCC1)c1cccc(S(=O)(=O)N2CCC(n3nnc4ccccc43)CC2)c1 | 5.8
33 | Cc1ccc(NC(=O)c2ccc(F)cc2F)cc1NS(C)(=O)=O | 12.3
34 | Cc1cccc(C)c1NS(=O)(=O)c1ccc(NC(=O)c2ccc(Cl)c([N+](=O)[O-])c2)cc1 | -5
35 | CN(C)S(=O)(=O)c1cccc(NC(=O)CN2C(=O)NC3(CCc4ccccc4C3)C2=O)c1 (centres unmarked) | 15.3
36 | COc1cc(OC)cc(C(=O)N=c2sc3ccccc3n2C)c1 | 18.5
37 | COCCn1c(C)cc(C(=O)CSc2nnnn2C2CCCC2)c1C | -58.4
38 | Cc1cc(-c2ccc(C)c(S(=O)(=O)NC(C)Cc3ccco3)c2)on1 (centres unmarked) | 1.07
39 | COc1ccc(C(=O)C2CCCN(Cc3cccn3-c3ccc(Cl)cn3)C2)c(OC)c1 (centres unmarked) | -45.8
40 | O=C(COC(=O)c1cc([N+](=O)[O-])ccc1N1CCOCC1)Nc1cccc(F)c1 | 0.575
41 | CC1=NN(C(=O)Cn2ccc([N+](=O)[O-])n2)C(O)(C(F)(F)F)C1 (centres unmarked) | 9.1
42 | COc1ccc(Cc2nc3ccc(S(N)(=O)=O)cc3[nH]2)cc1OC | -0.589
43 | OC1(c2ccccc2)CN(c2ccccc2)C2=[N+]1CCS2.[Br-] (centres unmarked) | 11.6
44 | Cc1ccc(C2(C)NC(=O)N(CC(=O)Nc3ccc(Cl)c(S(=O)(=O)N4CCCCC4)c3)C2=O)cc1 (centres unmarked) | 6.09

Row | SMILES | hERG current change (%, negative = inhibition) at 1uM [%]
45 | CCC(C)NC(=O)CC1Oc2ccc(C)cc2NC1=O (centres unmarked) | 6.79
46 | CC(=O)Nc1ccc(-c2csc(Nc3ccc(S(N)(=O)=O)cc3)n2)cc1 | 2.86
47 | CC1CC(C)CN(C(=O)CSc2nc(Cc3cccs3)nc3ccccc23)C1 (centres unmarked) | 5.63
48 | CCCCCCCNC(=O)C1(CC2CC(c3ccccc3)=NO2)CCN(C(=O)c2ccccc2)CC1 (centres unmarked) | -47.1
49 | O=C(CCn1ccc2cc(S(=O)(=O)N3CCCC3)ccc21)NCc1cccc(F)c1 | 16.4
50 | CCOC(=O)c1sc(NC(=O)C2CSC3(C)CCC(=O)N23)nc1C (centres unmarked) | -13.9
51 | NC(=O)c1sc2nc3c(cc2c1N)CCC3 | 6.2
52 | Cc1cc(C)n2nc(SCC(=O)N(C)C)nc2n1 | 8.54
53 | Nc1ccc(C23CC4CC(CC(C4)C2)C3)cc1 | 14.4
54 | COc1ccc(NC(=O)CCCC2=NS(=O)(=O)c3ccccc3N2)cc1 | 12.5
55 | COC(=O)C1=C(c2ccccc2)C[C@@H]2CC[C@H]1N2C(=O)N1CCCCC1 | -0.805
56 | O=C(Nc1cccnc1)c1cc2c(s1)-c1ccccc1OC2 | 6
57 | Cc1ccc(S(=O)(=O)N2CCCCC2)cc1NC(=O)c1cccs1 | -6.04
58 | CCOc1ccc(S(=O)(=O)N2CCOCC2)cc1NC(=O)c1ccccc1F | 19.4
59 | COc1ccc(Cc2c(Cl)ncnc2Cl)cc1 | 6.38
60 | COc1cccc(CN2CC(C(=O)N3CCN(c4ccc(Cl)cc4)CC3)CCC2=O)c1 (centres unmarked) | -53.3
61 | CCC(C)(C)n1nnnc1C(c1ccc(O)cc1)N1CCc2ccccc2C1.Cl (centres unmarked) | 4.58
62 | COc1ccccc1C(=O)NCCC(=O)NCC(c1ccccc1OC)N1CCCC1 (centres unmarked) | 24.1
63 | CCOC(=O)c1[nH]c2c(c1-c1ccccc1)C(=O)CC(c1ccc(OCC)cc1)C2 (centres unmarked) | 6.72
64 | COC(=O)CN(c1ccc2c(c1)OCO2)S(C)(=O)=O | 9.42
65 | OC(CCNCCc1c[nH]c2ccccc12)C(F)(F)F (centres unmarked) | 7.35
66 | CC(C)C(NC(=O)c1ccc(C(C)(C)C)cc1)C(=O)N1CCCC1 (centres unmarked) | 3.99

Row | SMILES | hERG current change (%, negative = inhibition) at 1uM [%]
67 | CC(C)c1nc(=S)n(-c2ccccc2)[nH]1 | 14.2
68 | COC(=O)CSc1nnc(NC(=O)/C=C\c2ccc3c(c2)OCO3)s1 | 19.5
69 | O=C(N/N=C/c1ccco1)c1ccn[nH]1 | 10.7
70 | CN(C)C(=O)c1ccc(NC(=O)COc2cccc(Oc3ccccc3)c2)cc1 | -1.62
71 | O=c1[nH]nc(SCc2cc(Cl)ccc2Cl)c(=O)[nH]1 | 4.56
72 | O=C(COc1ccccc1[N+](=O)[O-])N(C1CCCCC1)C1CCS(=O)(=O)C1 (centres unmarked) | 17.9
73 | CCCCOc1ccc(C(=O)Nn2cnnc2)cc1 | 6.14
74 | Cc1cc(N2CCN(C(=O)c3ccco3)CC2)n2nc(-c3cccc(F)c3)cc2n1 | -5.73
75 | CCOc1ccc(-n2cc(-c3ccccc3)c3c(=O)[nH]cnc32)cc1 | 10.7
76 | COc1ncnc(OC)c1S(=O)(=O)Nc1ccc(C(F)(F)F)cc1 | 6.07
77 | CCCCOc1ccc(C2CC(=O)NC2=O)cc1 (centres unmarked) | 8.6
78 | Cc1ccc2cc(C3CC(c4ccco4)=NN3S(=O)(=O)c3ccccc3)c(Cl)nc2c1 (centres unmarked) | 5.49
79 | COc1ccc(CN2CCC(n3nccc3NC(=O)c3ccc4c(c3)OCO4)CC2)cc1C | 2.86
80 | CN1OC(COC(=O)c2ccc(Cl)cc2)CC1c1ccccc1 (centres unmarked) | 20.1
81 | CN(C)c1nc2c(c(=O)n(C)c(=O)n2C)n1CC(=O)c1cccs1 | 3.11
82 | COCCOC(=O)C1=C(C)OC(N)=C(C#N)C1c1ccco1 (centres unmarked) | 19.5
83 | COC(=O)Nc1ccc(S(=O)(=O)NNC(=O)c2c(O)c3ccccc3[nH]c2=O)cc1 | 17.5
84 | COc1ccc(C(=O)C2CCCN(S(=O)(=O)N(C)C)C2)c(C)c1 (centres unmarked) | 9.99
85 | CC(=O)c1ccc(C(=O)N2CCCC(C(=O)c3ccc(Cl)cc3)C2)s1 (centres unmarked) | 7.04
86 | C/C=C/C=C\C(=O)Nc1cccc(C2=NOC3(C2)C[C@H](C(N)=O)N(C(=O)/C=C/C)C3)c1 (some centres unmarked) | 17.6
